# Assay results as given in the supplement of paper PMC12217912.
# The list shows a part of the results. The full chains were built here from the parent and the listed change. Values near 0.05 are background.
# B1: TEV protease; numbered along this chain (parent)
# chain: MGESLFKGPRDYNPISSSICHLTNESDGHTTSLYGIGFGPFIITNKHLFRRNNGTLVVQSLHGVFKVKDTTTLQQHLVDGRDMIIIRMPKDFPPFPQKLKFREPQREERICLVTTNFQTKSMSSMVSDTSCTFPSGDGIFWKHWIQTKDGQCGSPLVSTRDGFIVGIHSASNFTNTNNYFTSVPKNFMELLTNQEAQQWVSGWRLNADSVLWGGHKVFMVKPEEPFQPVKEATQL
# Variants of: B1
# Experiment: raw area under fraction-flipped curve 0-4 h after induction (AUC4h, not background-subtracted), DNA-recorder readout of cleavage of the substrate (dimensionless); higher = more cleavage of the substrate by the protease variant
# Settings: temperature: 34 °C; time window: 0-4 h after rhamnose induction
# Method: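 In vivo DNA recorder in E. coli TOP10(DE3) ΔrhaA at 34 °C. Each TEVp single-site mutant (parent TEVp 0) is paired with a single-site variant of the 7-mer TEVs (canonical ENLYFQ|S). The substrate sits between flexible linkers in a Bxb1-sfGFP-TEVs-SsrA fusion, so cleavage stabilises Bxb1 and speeds flipping of a recombination array, read by NGS. The value is the raw area under the fraction-flipped curve over 0-4 h after rhamnose induction (AUC4h), with ≥20 reads per time point. It is not background-subtracted; inactive controls average about 0.047.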
# 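Note: Bxb1 expression induced with 0.2% (w/v) L-rhamnose at OD600 near 0.5, cultures sampled hourly, flipped fraction per protease–substrate barcode pair counted by paired-end Illumina sequencing.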
Variant,area with substrate ENLYAQS,area with substrate ENLYCQS,area with substrate ENLYEQS,area with substrate ENLYGQS,area with substrate ENLYHQS,area with substrate ENLYIQS,area with substrate ENLYKQS,area with substrate ENLYMQS,area with substrate ENLYNQS,area with substrate ENLYPQS,area with substrate ENLYRQS,area with substrate ENLYSQS,area with substrate ENLYVQS,area with substrate ENLYWQS,area with substrate ENLYYQS,area with substrate ENLYDQS,area with substrate ENLYLQS,area with substrate ENLYQQS,area with substrate ENLYTQS
MGESLFKGPRDYNPISSSICHLTNESDGHTTSLYGIGFGPFIITNKHLFRRNNGTLVVQSLHGVFKVKDTTTLQQHLVDGRDMIIIRMPKDFPPFPQKLKFREPQREERICLVTTNFQTKSMSSMVSDTSCTFPSGDGIFWKHWIQTKDGQCGSPLVSTRDGFIVGIHSASNFTNTNNYFTSVPKNFMELLTNQEAQQWVSGWRLNADSVLWGGHKVFMVKPEKPFQPVKEATQL [E224K],0.0773,0.0873,0.084,0.0704,0.0667,0.0997,0.058,0.0907,0.0685,0.0729,0.0545,0.0742,0.0978,0.0657,0.0543,–,–,–,–
MGESLFKGPRDYNPIYSSICHLTNESDGHTTSLYGIGFGPFIITNKHLFRRNNGTLVVQSLHGVFKVKDTTTLQQHLVDGRDMIIIRMPKDFPPFPQKLKFREPQREERICLVTTNFQTKSMSSMVSDTSCTFPSGDGIFWKHWIQTKDGQCGSPLVSTRDGFIVGIHSASNFTNTNNYFTSVPKNFMELLTNQEAQQWVSGWRLNADSVLWGGHKVFMVKPEEPFQPVKEATQL [S16Y],0.0817,–,0.0793,0.0605,0.0643,0.1,0.0498,0.0774,0.0583,0.0479,0.0728,0.0937,0.127,0.0651,–,0.0607,0.068,0.0716,0.0661
MGESLFKGPRDYNPISSSICHLTNESDGHTTSLYGIGFGPFIITNKHLFRRNNGTLVVQSLHGVFKVKDTTTLQQHLVDGRDMIIIRMPKDFPPFPQKLKFREPQREERICLVTTNFQTKSMSSMVSDTSCTFPSGDGIFWKHWIQTKDGQCGSPLVSTRDGFIVGIHSASNFTNTNNYFTSVWKNFMELLTNQEAQQWVSGWRLNADSVLWGGHKVFMVKPEEPFQPVKEATQL [P184W],0.0611,0.0721,0.0716,0.0602,0.0804,–,0.0687,0.0645,0.0618,0.048,–,0.064,0.0595,–,0.0579,0.0574,0.0604,–,–
MGESLFKGPRDYNPISSSICHLTNESDGHTTSLYGIGFGPFIITNKHLFRRNNGTLVVQSLHGVFKVKDTTTLQQHLVDGRDMIIIRMPKDFPPFPQKLKFREPQREERICLVTTNFQTKSMSSMVSDTSCTFPSGDGIFWKHWIQTKDGQCGSPLVSTNDGFIVGIHSASNFTNTNNYFTSVPKNFMELLTNQEAQQWVSGWRLNADSVLWGGHKVFMVKPEEPFQPVKEATQL [R160N],0.0435,0.111,0.0711,–,0.0684,0.0895,0.0726,0.0826,0.0696,0.0611,0.0641,0.0799,–,0.0919,0.0924,0.0513,–,–,–
MGESLFKGPRDYNPISSSICHLTNESDGHTTSLYGIGFGPFIITNKHLFRRNNGTLVVQSLHGVFKVKDTTTLQQHLVDGRDMIIIRMPKDFPPFPQKLKFREFQREERICLVTTNFQTKSMSSMVSDTSCTFPSGDGIFWKHWIQTKDGQCGSPLVSTRDGFIVGIHSASNFTNTNNYFTSVPKNFMELLTNQEAQQWVSGWRLNADSVLWGGHKVFMVKPEEPFQPVKEATQL [P104F],0.0795,–,–,0.0488,0.0476,–,0.0608,–,0.0566,–,–,0.0588,0.053,0.0516,–,0.0532,–,0.0539,–
MGESLFKGPRDYNPISSSICHLTNESDGHTTSLYGIGFGPFIITNKHLFRRNNGTLVVQSLHGVFKVKDTTTLQQHLVDGRDMIIIRMPKDFPPFPQKLKFREPWREERICLVTTNFQTKSMSSMVSDTSCTFPSGDGIFWKHWIQTKDGQCGSPLVSTRDGFIVGIHSASNFTNTNNYFTSVPKNFMELLTNQEAQQWVSGWRLNADSVLWGGHKVFMVKPEEPFQPVKEATQL [Q105W],0.066,0.0804,0.0693,0.0637,0.0667,0.103,0.098,0.0773,0.0669,0.065,0.0692,0.0548,0.121,–,0.0628,0.0568,–,0.0598,0.0773
MGESLFKGPRDYNPISSSICHLTNESDGHCTSLYGIGFGPFIITNKHLFRRNNGTLVVQSLHGVFKVKDTTTLQQHLVDGRDMIIIRMPKDFPPFPQKLKFREPQREERICLVTTNFQTKSMSSMVSDTSCTFPSGDGIFWKHWIQTKDGQCGSPLVSTRDGFIVGIHSASNFTNTNNYFTSVPKNFMELLTNQEAQQWVSGWRLNADSVLWGGHKVFMVKPEEPFQPVKEATQL [T30C],0.0717,0.0914,0.0503,0.0647,0.0679,0.162,0.0681,0.0728,0.0658,0.0715,0.0587,0.0758,0.119,0.0803,0.0515,0.0772,–,0.0701,–
MGESLFKKPRDYNPISSSICHLTNESDGHTTSLYGIGFGPFIITNKHLFRRNNGTLVVQSLHGVFKVKDTTTLQQHLVDGRDMIIIRMPKDFPPFPQKLKFREPQREERICLVTTNFQTKSMSSMVSDTSCTFPSGDGIFWKHWIQTKDGQCGSPLVSTRDGFIVGIHSASNFTNTNNYFTSVPKNFMELLTNQEAQQWVSGWRLNADSVLWGGHKVFMVKPEEPFQPVKEATQL [G8K],0.0715,–,–,0.0687,0.0778,–,0.0588,–,–,0.0738,0.0594,–,0.113,0.0895,–,0.0627,–,0.0838,–
MGESLFKGPRDYNPISSSICHLTNESDGHTTSLYGIGFGPFIITNKHLFRRNNGTLVVQSLHGVFKVKDTTHLQQHLVDGRDMIIIRMPKDFPPFPQKLKFREPQREERICLVTTNFQTKSMSSMVSDTSCTFPSGDGIFWKHWIQTKDGQCGSPLVSTRDGFIVGIHSASNFTNTNNYFTSVPKNFMELLTNQEAQQWVSGWRLNADSVLWGGHKVFMVKPEEPFQPVKEATQL [T72H],0.0666,0.0884,0.0589,0.0526,0.0608,–,0.0471,0.0895,0.0656,0.0687,0.0675,0.0766,0.148,0.0816,0.0455,0.0583,–,0.0791,–
MGESLFKGPKDYNPISSSICHLTNESDGHTTSLYGIGFGPFIITNKHLFRRNNGTLVVQSLHGVFKVKDTTTLQQHLVDGRDMIIIRMPKDFPPFPQKLKFREPQREERICLVTTNFQTKSMSSMVSDTSCTFPSGDGIFWKHWIQTKDGQCGSPLVSTRDGFIVGIHSASNFTNTNNYFTSVPKNFMELLTNQEAQQWVSGWRLNADSVLWGGHKVFMVKPEEPFQPVKEATQL [R10K],0.0681,–,0.071,0.0654,0.0727,0.109,0.0675,0.0778,0.0655,0.0647,0.0792,0.0834,0.0957,0.0902,0.072,0.0642,0.0711,0.0536,0.0662
MGESLFKGPRDYVPISSSICHLTNESDGHTTSLYGIGFGPFIITNKHLFRRNNGTLVVQSLHGVFKVKDTTTLQQHLVDGRDMIIIRMPKDFPPFPQKLKFREPQREERICLVTTNFQTKSMSSMVSDTSCTFPSGDGIFWKHWIQTKDGQCGSPLVSTRDGFIVGIHSASNFTNTNNYFTSVPKNFMELLTNQEAQQWVSGWRLNADSVLWGGHKVFMVKPEEPFQPVKEATQL [N13V],0.0659,0.0926,0.0619,0.0647,0.0671,0.136,0.0547,0.0674,0.0647,0.0756,0.0618,0.0905,0.16,0.0801,0.0676,0.0502,0.0728,0.0631,0.0624
MGESLFKGPRDYNPISSSICHLTNESDGHTTSLYGIGFGPFIITNKHLFRRWNGTLVVQSLHGVFKVKDTTTLQQHLVDGRDMIIIRMPKDFPPFPQKLKFREPQREERICLVTTNFQTKSMSSMVSDTSCTFPSGDGIFWKHWIQTKDGQCGSPLVSTRDGFIVGIHSASNFTNTNNYFTSVPKNFMELLTNQEAQQWVSGWRLNADSVLWGGHKVFMVKPEEPFQPVKEATQL [N52W],0.0605,0.0628,0.0696,0.0588,0.0703,0.0773,0.0574,0.0643,0.0703,0.059,0.0648,0.0691,0.0715,0.061,0.0607,0.0604,–,0.055,0.0593
MGESLFKGPRDYNPISSSICHLTNESDGHTTSLYGIGFGPFIITNKHLFRRNNGTLVVQSLHGCFKVKDTTTLQQHLVDGRDMIIIRMPKDFPPFPQKLKFREPQREERICLVTTNFQTKSMSSMVSDTSCTFPSGDGIFWKHWIQTKDGQCGSPLVSTRDGFIVGIHSASNFTNTNNYFTSVPKNFMELLTNQEAQQWVSGWRLNADSVLWGGHKVFMVKPEEPFQPVKEATQL [V64C],0.0579,0.099,0.0701,–,0.0888,–,0.0719,0.072,0.0725,0.0917,0.0664,0.0561,0.132,0.0738,0.067,0.0731,0.0848,0.0707,0.0812
MGESLFKGPRDYNPISSSICHLTNESDGHTTSLYGIGFGSFIITNKHLFRRNNGTLVVQSLHGVFKVKDTTTLQQHLVDGRDMIIIRMPKDFPPFPQKLKFREPQREERICLVTTNFQTKSMSSMVSDTSCTFPSGDGIFWKHWIQTKDGQCGSPLVSTRDGFIVGIHSASNFTNTNNYFTSVPKNFMELLTNQEAQQWVSGWRLNADSVLWGGHKVFMVKPEEPFQPVKEATQL [P40S],0.0751,–,0.0689,0.0611,0.0449,0.112,0.0553,0.11,0.0646,0.066,0.0636,0.065,0.101,0.0794,–,0.0614,0.0923,0.0776,0.0792
MGESLFKGPRDYNPISSSICHLTNESDGHTTSLYGIGFGPFIITNKHLFRRNNGTLVVQSLHGVFKVKDTTTLQQHLVDGRDMIIIRGPKDFPPFPQKLKFREPQREERICLVTTNFQTKSMSSMVSDTSCTFPSGDGIFWKHWIQTKDGQCGSPLVSTRDGFIVGIHSASNFTNTNNYFTSVPKNFMELLTNQEAQQWVSGWRLNADSVLWGGHKVFMVKPEEPFQPVKEATQL [M88G],0.0404,–,0.0459,0.0253,–,–,–,0.0469,0.0545,0.0454,0.0642,0.0551,0.0754,0.0644,–,0.0605,–,0.0299,0.0538
MGESLFKGPRDYNPISSSICHLTNESDGHTTSLYGIGFGPFIITNKHLFRRNNGTLVVQSLHGVFKVKDTTTLQQHLVDGRDMIIIRMPKDFPPFPQKLKFREPQREERICHVTTNFQTKSMSSMVSDTSCTFPSGDGIFWKHWIQTKDGQCGSPLVSTRDGFIVGIHSASNFTNTNNYFTSVPKNFMELLTNQEAQQWVSGWRLNADSVLWGGHKVFMVKPEEPFQPVKEATQL [L112H],0.0623,0.064,0.0615,–,0.0954,0.0876,0.0636,0.0542,0.0591,0.0598,0.0641,0.088,0.0701,0.0683,0.0633,0.056,0.0548,–,–
MGESLFKGPRDYNPISSSICHLTNESDGHTTSLYGIGFGPFIITNKHLFRRNNGTLVVQSLHGVFKVKDTTTLQQHLVDGRDMIIIRMPKDFPPFPQKLKFREPQREERICLVTTNFQTKSMSSMVSDTSCTFPSGDGIFWKHWIQTKDGQCGSPLVSTRDGFIVGIHSASNFTNTNNYFTSVPKNFMELLTNQEAQQWVSGWHLNADSVLWGGHKVFMVKPEEPFQPVKEATQL [R204H],0.0632,–,0.072,–,0.0697,0.0815,0.056,0.0772,0.0612,0.0662,–,0.075,0.117,0.0982,0.0741,0.0563,–,0.054,0.0866
